These results are taken from ChEMBL document CHEMBL4888484, “Replenishing the malaria drug discovery pipeline: Screening and hit evaluation of the MMV Hit Generation Library 1 (HGL1) against asexual blood stage Plasmodium falciparum ,using a nano luciferase reporter read-out” (2022).

What is called % Inhibition is the relative decrease from the control value, in per cent.

About 540 (0.36%) of roughly 150,000 compounds showed an effect of 50% or more. The list shows a part of the results.

The test relates to Plasmodium falciparum. The experiment in a line: Primary screen in NF54 nanoGlo assay, in single point, at 2uM, 72h; a lower Z score goes with more inhibition. Format: functional, Erythrocyte. The conditions noted are these: timepoint 72 hour.
On to `Cc1cc(C(=O)NC(C)(C)[C@@H]2CCCCO2)oc1Br`, for which the “% Inhibition” value is recorded as -9% and the Z score is 1.81.

Turning to `O=C1N(CCC2CCCCC2)CCC[C@@]1(O)CN1CCC(O)CC1`, the “% Inhibition” value is recorded as -10% and the Z score turned out to be 1.47.

For the molecule `CC(C)C(=O)N1CC[C@]2(C1)c1nc[nH]c1CCN2CC1CCCCC1`, the “% Inhibition” value is -10% and the Z score amounted to 1.77.

On to `C[C@@H](C1CC1)N(C)CC(=O)Nc1cccc(F)c1`, for which the “% Inhibition” value is recorded as -8% and the Z score is 1.24.

`CN1CCCC2(CCN(C(=O)c3ccc4[nH]cnc4c3)CC2)[C@H]1C(=O)N1CCCC1`: the “% Inhibition” value is 6% and the Z score is -1.19.

Consider `CCC#CCN1CC[C@@]2(CCCN(CC3CCC3)C2=O)C1`, for which the “% Inhibition” value was -10% and the Z score was 1.88.

Consider `CC(C)(C)OC(=O)[C@@H]1CCCN1c1nc(-c2ccncc2)nc2c1CCC2`, for which the “% Inhibition” value is -1% and the Z score turned out to be 0.26.

Consider `O=S(=O)(c1ccccc1)[C@H]1CCN(S(=O)(=O)Cc2cccc(F)c2)C1`, for which the “% Inhibition” value is reported as -14% and the Z score was 2.35.

Regarding `Cc1ccc(-c2noc(CCCC(=O)N3CC[C@H](CCOc4ccc(F)cc4)C3)n2)cc1`, the “% Inhibition” value was -8% and the Z score was determined as 1.56.

On to `CC[C@H]1C=CCN1C(=O)CCc1ccc2c(c1)OCO2`, for which the “% Inhibition” value is given as -2% and the Z score came to 0.26.

For `CCn1cc(-c2noc(CNC(=O)c3cc(-c4cccs4)nn3C)n2)cn1`, the “% Inhibition” value is -19% and the Z score was 2.4.

With `CC1COCC(C)N1C(=O)c1cc(Br)cn1C(C)C` (centres undefined), the “% Inhibition” value is given as -3% and the Z score is 0.27.

For the molecule `C[C@H]1Cc2cc(NC(=O)CCN3CCCC3=O)ccc2O1`, the “% Inhibition” value was -11% and the Z score was found to be 1.46.

Turning to `COc1cc2c(cc1C(=O)N1C[C@@H]3NC(=O)c4ncccc4OCCn4cc(nn4)CO[C@H]3C1)CCC2`, the “% Inhibition” value is listed as -6% and the Z score worked out at 0.71.

Consider `COc1ccc(Cl)c2c(=O)c3c([nH]c12)CCN(CC(=O)Nc1ccc(Cl)c(F)c1)C3`, for which the “% Inhibition” value is reported as 3% and the Z score is -0.54.

Consider `Cc1nc(NCCn2nc(C)nc2C)c2ccsc2n1`, for which the “% Inhibition” value turned out to be 1% and the Z score is -0.14.

For `COc1ccc(CCNC(=O)c2csc(CN(Cc3cccc(C(F)(F)F)c3)Cc3ccccc3F)n2)cc1OC`, the “% Inhibition” value is listed as -11% and the Z score stood at 1.05.

With `CC(C)CN1CCCN(C(=O)[C@@H]2Cc3ccccc3S(=O)(=O)N2)CC1`, the “% Inhibition” value was -2% and the Z score came to 0.25.

For `CCn1ncc(CN2CCC3(CC2)C[C@@H](C(=O)NC2CCCC2)N(C)C3=O)c1C`, the “% Inhibition” value is -5% and the Z score was 0.62.

Consider `Cc1cnc(C(C)CNC(=O)NCCC2CCCO2)s1` (centres undefined), for which the “% Inhibition” value is 1% and the Z score is -0.09.

`O=C(c1cc(Cl)c2nc3cc(Cl)ccc3n2c1)c1ccccc1O`: the “% Inhibition” value is reported as -2% and the Z score was 0.29.

With `Cc1oc2ncn(CCC(=O)NCCC(C)C)c(=O)c2c1C`, the “% Inhibition” value was -8% and the Z score turned out to be 0.98.

`CC1(C)C[C@@H]1NC(=O)c1ccc2c(c1)N=S=N2`: the “% Inhibition” value worked out at 6% and the Z score is listed as -0.96.

For `CCN1CCOC[C@H]1C(=O)NCC1(CO)CC2(CCC2)C1`, the “% Inhibition” value is recorded as -1% and the Z score is reported as 0.2.

For `CC(=O)N1CC(C(=O)NCc2ccco2)CC(c2ccc(F)c(C)c2)C1` (centres undefined), the “% Inhibition” value is -12% and the Z score turned out to be 1.73.

Turning to `Cc1nc(N2CCC[C@@]3(C2)NC(=O)NC3=O)c(Cl)cc1C#N`, the “% Inhibition” value is on record as -8% and the Z score was 1.49.

Take `CC(C)NC(=O)N1CCN2[C@H](CN(C)CC2(C)C)C1`: the “% Inhibition” value is -4% and the Z score is reported as 0.69.

On to `CC[C@H]1c2cc(F)c(F)cc2CCN1C(=O)Cc1c(C)n[nH]c1C`, for which the “% Inhibition” value is -7% and the Z score is listed as 0.95.

Take `CCc1ccoc1C(=O)NC[C@H]1Cc2ccccc2CN1`: the “% Inhibition” value is -1% and the Z score is recorded as 0.1.

With `O=C(NS(=O)(=O)N1CCc2ccccc21)c1ccsc1`, the “% Inhibition” value is reported as 1% and the Z score is given as -0.2.

As to `Cn1cnnc1-c1cncc(NCc2csc(-c3ccccn3)n2)c1`, the “% Inhibition” value is -7% and the Z score turned out to be 0.79.

Turning to `COCC(=O)N[C@H]1[C@H](c2cccs2)N(C(=O)C2CCCCC2)CC[C@@]1(C)O`, the “% Inhibition” value is listed as 3% and the Z score is reported as -0.39.

`Cc1ccc(S(=O)(=O)NCCc2csc(-n3cccn3)n2)cc1`: the “% Inhibition” value was determined as 0% and the Z score is -0.05.

`COc1cc(C2(C(=O)Nc3ncnn3C(C)C)CCC2)ccc1C`: the “% Inhibition” value is reported as -2% and the Z score is 0.41.

For the molecule `COc1cccc(N2CCN(C(=O)[C@H]3CCCN(c4nccc5sc(C)cc45)C3)CC2)c1`, the “% Inhibition” value is on record as 0% and the Z score is listed as -0.03.

As to `CC1(C)CCc2nnc(-c3ccoc3)n2C1`, the “% Inhibition” value is reported as -9% and the Z score is reported as 1.67.

For the molecule `CN(Cc1ccccc1)C(=O)Cc1cn(C)c2ncccc12`, the “% Inhibition” value was -7% and the Z score is given as 0.76.

With `CCN1CCCC(CNC(=O)N2CCC(OCC(C)C)C2)C1` (centres undefined), the “% Inhibition” value is given as -6% and the Z score is given as 0.88.

Turning to `Cc1c(C#N)nn(-c2ccccc2)c1NC(=O)CS(=O)(=O)C(C)C`, the “% Inhibition” value is -4% and the Z score was 0.51.

For the molecule `CCCC1C(c2ccccc2)NC(c2ccccc2)CC1(O)C#Cc1ccccc1` (centres undefined), the “% Inhibition” value is -8% and the Z score was 1.02.

With `COc1ccc2oc(CNC(=O)N(CCN(C)C)Cc3ccsc3)nc2c1`, the “% Inhibition” value is -15% and the Z score was determined as 1.59.

In the case of `COc1ccccc1N(CN1CCCC1=O)C(=O)c1ccc(F)cc1`, the “% Inhibition” value is recorded as -3% and the Z score worked out at 0.56.
